The whole screen tested about 44,000 compounds, of which about 340 (0.77%) were called active. Roughly 5% stayed inconclusive and do not appear here. The call rests on the fitted dose curve; in most records, active means well fitted inhibition curve with a large enough effect; inconclusive means small, poorly fitted or top-dose-only effect; inactive means flat fitted curve, though single readings scatter. Some of the results follow.
test: Acumen qHTS Assay for Inhibitors of the mTORC1 Signaling Pathway in MEF (Tsc2-/-, p53-/-) Cells: Sytravon; details: phospho-rpS6 immunofluorescence/PI, 24 h; series mostly up to 38.3 µM; activity change, negative = inhibition: at the top concentration; further: nearly all actives have a fitted effect of over 50% in size;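 on activity change, negative = inhibition: plate controls were DMSO for no effect and rapamycin for full effect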
Procedure, shortened: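 Immunofluorescence of rpS6 phosphorylation in Tsc2-/-, p53-/- MEFs after 24 h compound exposure, normalized to propidium iodide signal. Activity is expressed as % positive cells, thresholded with 7.5 nM rapamycin.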
Potency means the concentration at half of the fitted maximal effect.

| SMILES | activity change, negative = inhibition | Potency |
| --- | --- | --- |
| CCCCCn1c(=O)[nH]c2cc(C(=O)N3CCN(c4cc(Cl)ccc4C)CC3)ccc2c1=O | inactive: 5.63% |  |
| CCOC(=O)N1CCC(NC(=O)c2ccc3c(c2)N(Cc2cc(C)ccc2C)C(=O)c2ccccc2S3(=O)=O)CC1 | inactive: 0.0607% |  |
| Cc1ccc(C(=O)OCc2cc(=O)n3nc(-c4cccs4)sc3n2)cc1 | inactive: -3.88% |  |
| Cc1ccccc1C(=O)OCc1cc(=O)n2nc(C3CC3)sc2n1 | inactive: -9.99% |  |
| CCOC(=O)c1c(S(=O)(=O)NCC(=O)Nc2cc(C)ccc2OC)c(C)n(C)c1C | inactive: -0.278% |  |
| COc1ccc(NC(=O)CSc2nc3ccccc3nc2Cc2ccc(C)cc2)cc1Cl | inactive: -16.5% |  |
| O=C(Cn1cc(SCc2ccccc2F)c2ccccc21)N1CCCCCC1 | inactive: -12.1% |  |
| COc1ccccc1NC(=O)Cn1c(=O)n(Cc2cccs2)c(=O)c2cccnc21 | inactive: -6.1% |  |
| CCN(CC)c1ccc2cc(-c3nc(-c4ccc(Cl)cc4Cl)cs3)c(=O)oc2c1 | inactive: 0.25% |  |
| Cc1nc(-c2ccccc2)sc1-c1ccc(SCC(=O)NCc2ccccc2)nn1 | inactive: 4.9% |  |
| CCOC(=O)c1ccc(Nc2nc3nonc3nc2Nc2cccc(C)c2C)cc1 | inactive: -20.1% |  |
| Cc1coc2cc3oc(=O)c(CC(=O)NCc4ccccc4)c(C)c3cc12 | inactive: -8.8% |  |
| CC(=O)N1CCCc2cc(S(=O)(=O)N3CCCC(C(=O)Nc4ccc(C)c(C)c4)C3)ccc21 (configuration not stated) | inactive: -4.49% |  |
| CC(C)(C)c1ccc(S(=O)(=O)Nc2ccc(O)c(Sc3nc4ccccc4s3)c2)cc1 | inactive: 11.9% |  |
| Cc1ccc(C(=O)Nc2ccc3oc(-c4cccnc4)nc3c2)c(Cl)c1 | inactive: 5.21% |  |
| CCOc1ccccc1NC(=O)c1cc(S(=O)(=O)NC2CCCC2)ccc1F | inactive: 11.2% |  |
| COc1cccc(-c2cnc(NCc3ccccc3Cl)n2C)c1 | inactive: -29.6% |  |
| Cc1ccc(S(=O)(=O)Nc2cc3c(cc2Cl)n(C)c(=O)c(=O)n3C)cc1 | inactive: 0.541% |  |
| CCOc1ccc2nc(N3CCC(C(=O)Nc4c(C)cccc4C)CC3)sc2c1 | inactive: 1.93% |  |
| Cc1ccc(-n2ncc(C(=O)N3CCC(c4ccccc4)C3)c2C2CCN(C(=O)OC(C)(C)C)CC2)cc1 (configuration not stated) | inactive: 4.39% |  |
| CCCCOc1ccc(CNC(=O)c2ccc(NC(=O)N3CCSc4ncccc43)cc2)cc1 | inactive: -3.18% |  |
| O=S(=O)(Nc1cccc(-c2ccc(N3CCOCC3)nn2)c1)c1ccc(F)cc1F | inactive: -11.7% |  |
| O=C(Nc1nc(-c2ccc(Br)cc2)ns1)c1ccccc1F | inactive: 1.14% |  |
| CCCc1nn2c(C)c(-c3ccccc3)nc2s1 | inactive: -3.17% |  |
| COC(=O)CCN(C(=O)c1c(C)oc2ncnc(N3CCOCC3)c12)c1ccccc1 | inactive: 1.43% |  |

| SMILES | activity change, negative = inhibition | Potency |
| --- | --- | --- |
| Cc1cccc(N2CCN(C(=O)C3CCN(S(=O)(=O)c4ccc5c(c4)oc(=O)n5C)CC3)CC2)c1C | inactive: -0.0585% |  |
| Cc1cc(C)c2oc(C(=O)Nc3ccc(S(=O)(=O)N(C)c4ccccc4)cc3)cc(=O)c2c1 | inactive: 3.11% |  |
| O=c1c2c3c(sc2n(Cc2cc(=O)n4ccccc4n2)c(=O)n1-c1ccc(Cl)cc1)CCC3 | inactive: 12.5% |  |
| O=C(/C=C/c1ccccc1)N1CCN(Cc2cc(=O)n3nc(-c4ccccc4)sc3n2)CC1 | inactive: 0% |  |
| CCN(c1cc(C)cc(C)c1)S(=O)(=O)c1nnc(NC(=O)c2cccc(F)c2)s1 | inactive: 8.5% |  |
| CCCOc1ccc(C2C(=O)N(C3CCCCCC3)CC(=O)N2CCCOCC)cc1OC (configuration not stated) | inactive: 9.66% |  |
| Cc1ccccc1NC(=O)c1sc2nc(N3CCOCC3)c3c(c2c1N)CC(C)(C)OC3 | inactive: -4.55% |  |
| CCOc1ccccc1N(C)C(=O)Cn1nc(Cc2cccnc2)c2ccccc2c1=O | inactive: 1.06% |  |
| COc1cc(NC(=O)N2CCN(c3cc(-c4noc(C)n4)ccc3C)CC2)cc(OC)c1OC | inactive: -0.517% |  |
| Cc1ccc(NC(=O)/C(C#N)=C\c2ccc(Cl)cc2Cl)cc1C | inactive: -1.89% |  |
| COc1ccc2c(c1)c1c(c(=O)n(CCc3ccccc3)c(=O)n1Cc1ccc(Cl)cc1)n2C | inactive: -1.35% |  |
| CC(C)c1ccccc1NC(=O)CSc1nnc(COc2ccccc2Cl)o1 | inactive: -7.51% |  |
| CCN(c1ccc(C)cc1)S(=O)(=O)c1nnc(NC(=O)c2cccs2)s1 | inactive: -1.21% |  |
| CCOc1ccccc1NC(=O)N1CCN(S(=O)(=O)c2ccc3c(ccn3C)c2)CC1 | inactive: -1.66% |  |
| Nc1c(-c2nc(-c3ccccc3)no2)nnn1CC(=O)Nc1ccccc1 | inactive: 0% |  |
| COc1ccccc1CNC(=O)Cn1ncc2c(C)n(Cc3ccccc3Cl)c(C)c2c1=O | inactive: 2.04% |  |
| Cc1ccc(-c2ccc(CCC(=O)O)n2-c2ccc(C(C)C)cc2)cc1 | inactive: 2.96% |  |
| CCN(CC)CCNC(=O)c1cc2c(=O)[nH]c3ccc(C)cc3c2s1 | inactive: -1.18% |  |
| O=C(NCc1ccccn1)c1nn(-c2ccccc2Cl)nc1CO | inactive: 2.27% |  |
| Cc1ccccc1NC(=O)c1ccc(CNS(=O)(=O)c2ccc3c(c2)C(C)(C)C(=O)N3C)cc1 | inactive: 1.69% |  |
| Cc1cc(NC(=O)CSc2ncc(C(=O)Nc3ccccc3)c(=O)n2C)no1 | inactive: 0.0117% |  |
| CCN(CC)C(=O)C1=C(C)Nc2nc3ccccc3n2C1c1ccc(Cl)cc1 (configuration not stated) | inactive: -0.0124% |  |
| CSc1ncc(C(=O)Nc2cccc(Cl)c2C)c(-c2ccccc2)n1 | inactive: 0% |  |
| CCNC(=O)CC1C(=O)N(c2ccc(F)cc2)C(=O)N1Cc1ccc(C)cc1 (configuration not stated) | inactive: -2.6% |  |
| Cc1ccc(Cl)cc1N(C)C(=O)c1cc2ccc3cccnc3c2[nH]1 | inactive: -11.6% |  |

| SMILES | activity change, negative = inhibition | Potency |
| --- | --- | --- |
| CCCCOc1ccc(C(=O)NCCc2csc3nc(-c4ccccc4F)nn23)cc1 | inactive: -1.86% |  |
| CS(=O)(=O)N1CCC(N2CCN(Cc3ccc(F)cc3)C(=O)C2=O)CC1 | inactive: -0.672% |  |
| CCOc1ccccc1C(=O)NCC(c1ccc(N(C)C)cc1)N1CCCC1 (configuration not stated) | inactive: 0% |  |
| CSc1ccc(CCNC(=O)c2ccc3c(c2)c(C)c(C)n3Cc2ccc(F)cc2)cc1 | inactive: -23% |  |
| CCn1c(CN2CCN(C)CC2)nc2cc(NC(=O)c3cc(OC)c(OC)c(OC)c3)ccc21 | inactive: 0.307% |  |
| CC(=O)c1cccc(NC(=O)c2cc(-c3ccc4c(c3)OCCO4)on2)c1 | inactive: -15.8% |  |
| CCOC(=O)CNC(=O)Cn1nc(N2CCN(c3ccccc3)CC2)ccc1=O | inactive: -1% |  |
| COc1ccc(CCNC(=O)c2cc3c(=O)[nH]c4ccc(C)cc4c3s2)cc1OC | inactive: -13% |  |
| CCN(CC)C(=O)C1CCCN(c2ncnc3c2nc2n3CCCCC2)C1 (configuration not stated) | inactive: 2.64% |  |
| COC(=O)c1ccccc1NC(=O)CCCS(=O)(=O)c1nc(-c2ccccc2OC)cc(C(F)(F)F)n1 | inactive: -1.35% |  |
| CCOc1ccccc1CNC(=O)CN1C(=O)C2CCCCN2c2ccc(C(=O)N(C)C)cc21 (configuration not stated) | inactive: -0.452% |  |
| COc1ccc(CCCc2nnc(SCC(=O)Nc3ccc(Cl)cc3)o2)cc1 | inactive: -8.61% |  |
| CCOc1ccc(OCC)c(NC(=O)c2c(C)nn(-c3ccccc3)c2-n2cccc2)c1 | inactive: -7.89% |  |
| Cc1nn(C)c2c1c(C(F)(F)F)cc(=O)n2CC(=O)NC(C)(C)C | inactive: 7.51% |  |
| CCc1ccccc1NC(=O)c1ccc2[nH]c(C)c(C)c2c1 | inactive: 2.17% |  |
| Cc1oc2ncnc(N3CCCCC3)c2c1C(=O)Nc1cccc(F)c1 | inactive: 3.59% |  |
| COc1ccc(-c2cc(-c3ccc(F)cc3)nc3c2COc2ccccc2-3)cc1 | inactive: 6.9% |  |
| CCc1ccc(CNC(=O)c2sc3ncnc(N(C)C4CCCCC4)c3c2C)cc1 | inactive: 2.73% |  |
| Cc1ccccc1CN1C(=O)C(O)(CC(=O)c2cccc(Br)c2)c2ccccc21 (configuration not stated) | inactive: -14% |  |
| CCOc1ccccc1C1Nc2ccccc2-c2nnc(SCc3ccccc3)nc2O1 (configuration not stated) | inactive: -13.1% |  |
| Cc1c(C(=O)NCc2ccccc2)oc2c1-c1[nH]ncc1CC2 | inactive: 2.78% |  |
| COc1ccc(Nc2cc(C(=O)NCCCN(C)C3CCCCC3)c3ccccc3n2)cc1 | inactive: -79.7% |  |
| CCOc1ccc(-c2nnc(SCC(=O)NCCc3ccccc3)nc2-c2ccc(OCC)c(OC)c2)cc1OC | inactive: -6.56% |  |
| COc1ccc(Br)cc1CNC(=O)c1ccc(-n2c(C)cc3c2CCC(C)C3)cc1 (configuration not stated) | inactive: -23.3% |  |
| Cc1cc(O)c(CN2CCN(c3ccc(F)cc3)CC2)c2oc(=O)cc(C)c12 | inactive: 2.04% |  |

| SMILES | activity change, negative = inhibition | Potency |
| --- | --- | --- |
| Cc1cccc(C(=O)Nc2nnc(S(=O)(=O)N3c4ccccc4CC3C)s2)c1 (configuration not stated) | inactive: 7.84% |  |
| COCCCn1c(=N)c(C(=O)NC2CCCC2)cc2c(=O)n3cc(C)ccc3nc21 | inactive: 0.335% |  |
| CCn1c(=O)cc(OCC(=O)Nc2ccccc2Cl)c2ccccc21 | inactive: -0.386% |  |
| CCOc1ccc(CCNC(=O)c2nn(-c3ccc(OC)cc3)c(=O)c3c2c2ccccc2n3C)cc1OCC | inactive: 4.64% |  |
| O=C(O)CCc1ccc(-c2ccc(Cl)cc2)n1-c1cccc(C(F)(F)F)c1 | inactive: -10.2% |  |
| CCOC(=O)c1cnc(NCc2ccc(Cl)cc2)c2ccccc12 | inactive: -4.63% |  |
| Cc1ccc2[nH]c3c(=O)n(CC(=O)N(C)Cc4ccccc4)ncc3c2c1 | inactive: -7.32% |  |
| O=C(Cc1ccc(F)cc1)NCCc1csc(-c2ccc(C(F)(F)F)cc2)n1 | inactive: -13.1% |  |
| Cn1c(CN2CCCCC2)nc2cc(NC(=O)c3ccc(Cl)cc3)ccc21 | inactive: -11.7% |  |
| CCN(CC)C(=O)c1ccccc1NC(=O)c1cccc(S(=O)(=O)N2CCC(C)CC2)c1 | inactive: -0.527% |  |
| O=C(NC1CCCCC1)/C(=C/c1ccc(Cl)cc1)NC(=O)c1ccccc1 |  | active: 14.7 µM |
| Cc1ccc(C(=O)CSc2nnc3ccc4ccccc4n23)cc1 | inactive: -15.5% |  |
| N#Cc1cc2c(=O)n3ccccc3nc2n(-c2nnc(SCc3ccccc3)s2)c1=O | inactive: -5.71% |  |
| Cc1ccc(NC(CNS(=O)(=O)c2ccc(Cl)cc2)c2ccccc2)cc1 (configuration not stated) | inactive: -15% |  |
| Cc1ccc(CNC(=O)C2CCN(c3ncnc4c3nc3n4CCCCC3)CC2)cc1 | inactive: -4.06% |  |
| CCC(=O)N1c2ccc(S(=O)(=O)N3CCN(c4ccccc4Cl)CC3)cc2CC1C (configuration not stated) | inactive: -0.682% |  |
| Cc1cccc(N(C)c2nc3ccc(C)cc3n3nnnc23)c1 | inactive: 0% |  |
| CCOC(=O)C1CCCN(S(=O)(=O)c2cc(-c3cc(C)no3)ccc2C)C1 (configuration not stated) | inactive: 3.16% |  |
| Cc1cccc(C)c1Nc1c(-c2ccccc2O)nc2ncccn12 | inactive: -14% |  |
| Cc1ccccc1CNC(=O)c1ccc2c(c1)N(Cc1ccccc1)CCS2 | inactive: -7.32% |  |
| O=C(CCCn1c(=O)c2cccn2c2cccnc21)Nc1ccccc1Br | inactive: -0.55% |  |
| O=c1oc2ccc3ccccc3c2cc1-c1nnc(Nc2cccc(F)c2)s1 | inactive: 4.69% |  |
